Where “and” joins values, the source holds several entries; their conditions need not be identical. Equal values may be shown once. ± gives the standard deviation of the averaged measurements. The list shows a part of the results. Single values are uncertain, as repeats are few or missing.
Assays:
[1] = system: SARS-CoV-2 nsp3 SARS-unique domain core (SUD-core, nsp3 residues 413-676); test: dissociation rate constant koff (BLI); higher = faster dissociation; conditions: 100 µM; 25 °C
[2] = system: SARS-CoV-2 nsp3 SARS-unique domain core (SUD-core, nsp3 residues 413-676); test: apparent dissociation constant Kd (single-concentration BLI fit); higher = weaker binding; conditions: 100 µM; 25 °C

SMILES	dissociation rate constant koff [1]	apparent dissociation constant Kd [2]
O=C(Nc1ccc(OC(F)(F)Cl)cc1)c1cnc(N2CC[C@@H](O)C2)c(-c2ccn[nH]2)c1	0.268 s⁻¹	–
Cc1nc2c(-c3cnc(N)nc3)nc(N3CCOCC3)nc2n1C(C)C	0.553 s⁻¹	–
CC(C)(C)c1cc(NC(=O)Nc2ccc(-c3cccc4c(N)nccc34)cc2)no1	0.0667 s⁻¹	–
CN1CCN(S(=O)(=O)c2ccc(-c3cnc(N)c(C(=O)Nc4cccnc4)n3)cc2)CC1	0.0228 s⁻¹	–
CN1CCN(c2cnc3c(C4CCN(C(=O)c5ccc(OC(F)(F)F)cc5N)CC4)ncnc3c2)CC1	0.0498 s⁻¹	11300 µM
CC(=O)NCC(=O)N1[C@@H]2CC[C@H]1c1ccc(Nc3ncc(C(F)(F)F)c(NC4CCC4)n3)cc12	0.271 s⁻¹	1590 µM
Nc1n[nH]c2nnc(-c3c(-c4ccccc4)nn4ccccc34)cc12	0.0122 s⁻¹	46.3 µM
O=c1[nH]cnc2c1ncn2[C@H]1CC[C@@H](CO)O1	0.124 ± 0.14 s⁻¹	–
Cc1cnc(Nc2ccc(OCCN3CCCC3)cc2)nc1Nc1cccc(S(=O)(=O)NC(C)(C)C)c1	0.437 s⁻¹ and 0.667 s⁻¹	–
CNc1ccc(-c2nc(N3CCOCC3)c3sc(CN(C)c4ncc(C(=O)NO)cn4)cc3n2)cn1	0.039 s⁻¹	174 µM
C=C(CCC=C(C)C)[C@H]1CC[C@]2(C)[C@@H]1[C@H](O)C[C@@H]1[C@@]3(C)CC[C@H](O[C@@H]4O[C@H](CO)[C@@H](O)[C@H](O)[C@H]4O[C@@H]4O[C@H](CO)[C@@H](O)[C@H](O)[C@H]4O)C(C)(C)[C@@H]3CC[C@]12C	0.0067 s⁻¹	24.5 µM
CNc1nc(Nc2cnn([C@H]3CCN(C4COC4)C[C@@H]3F)c2Cl)ncc1C(F)(F)F	0.21 s⁻¹	11.7 µM
C[C@H](Nc1cc(-c2cnn(C)c2)cc(Nc2cnccn2)n1)c1ccc(F)cc1	0.0857 s⁻¹ and 0.0501 s⁻¹	–
Cc1c(-c2c(F)cc(C(N)=O)c3[nH]c4c(c23)CC[C@H](C(C)(C)O)C4)cccc1-n1c(=O)c2cccc(F)c2n(C)c1=O	0.114 s⁻¹	2450 µM
O=c1ccn([C@@H]2O[C@H](COP(=O)(O)OP(=O)(O)OP(=O)(O)O)[C@@H](O)[C@H]2O)c(=O)[nH]1	0.165 s⁻¹	4070 µM
CCNC(=O)Nc1ccc(-c2nc(N3CCOC[C@@H]3C)c3c(n2)C(C)(C)S(=O)(=O)C3)cc1	0.803 s⁻¹	884 µM
Nc1ncnc2c1ncn2[C@@H]1O[C@@H]2COP(O)(=S)O[C@@H]3[C@H](O)[C@@H](COP(=O)(S)O[C@H]2[C@H]1O)O[C@H]3n1cnc2c(N)ncnc21 (stereo not given in full)	0.0188 s⁻¹	–
Oc1ccc(/C=C/c2cc(O)cc(F)c2)cc1	0.00866 s⁻¹	36 µM
O=c1cc(N2CCOCC2)oc2c(-c3ccccc3)cccc12	0.0659 s⁻¹	744 µM
CC(C)=CCC/C(C)=C/CC/C(C)=C/C=C/C(C)=C/C(=O)O	0.0437 s⁻¹	178 µM

SMILES	dissociation rate constant koff [1]	apparent dissociation constant Kd [2]
COc1cc(C(=O)NC2CCN(C)CC2)ccc1Nc1ncc2c(n1)N(C1CCCC1)CC(F)(F)C(=O)N2C	0.0662 s⁻¹	–
COCCOc1cc2nccc(Nc3n[nH]c(C)c3C)c2cc1S(=O)(=O)C(C)(C)C	0.203 s⁻¹	–
CCCCCCCCCCCCCCCCCCOP(=O)([O-])OC1CC[N+](C)(C)CC1	0.00101 s⁻¹	2.88 µM
Cc1cn([C@@H]2O[C@H](CO)[C@@H](O)[C@H]2O)c(=O)nc1N	0.157 ± 0.2 s⁻¹	–
COC1(C(=O)N[C@@H](C)c2ccc(-n3cc(F)cn3)nc2)CCC(c2nc(C)cc(Nc3cc(C)[nH]n3)n2)CC1 (stereo not given in full)	0.749 s⁻¹	17100 µM
Nc1ccn([C@@H]2O[C@H](CO)[C@@H](O)C2(F)F)c(=O)n1	0.0112 s⁻¹ and 0.0114 s⁻¹	–
NCCCCCCNS(=O)(=O)c1cccc2c(Cl)cccc12	0.702 s⁻¹	1680 µM
Cc1cccc(/C=N/Nc2cc(N3CCOCC3)nc(OCCc3ccccn3)n2)c1	0.565 s⁻¹	2610 µM
COc1cc(C(=O)NC2CCN(C)CC2)c(F)cc1Nc1ncc2c(n1)N(C1CCCC1)CC(F)(F)C(=O)N2C	0.124 s⁻¹	–
O=c1[nH]c(=O)n([C@H]2C[C@H](O)[C@@H](CO)O2)cc1/C=C/Br	0.0139 s⁻¹	96.7 µM
CCN1Cc2c(ccc(F)c2C#N)O[C@@H](C)CNC(=O)c2c(N)nn3ccc1nc23	0.861 s⁻¹	2330 µM
Cc1c(Br)c(Br)c2c3c1nc(N1CCNCC1)n3CCC2	0.0644 s⁻¹	85 µM
CCCCNc1ncc2c(-c3ccc(CN4CCN(C)CC4)cc3)cn(C3CCC(O)CC3)c2n1 (stereo not given)	0.0359 s⁻¹	29.1 µM
O=C(Cc1ccc(-c2ccc(OCCN3CCOCC3)cc2)cn1)NCc1ccccc1	0.0677 s⁻¹	34.1 µM
C[S+]([O-])c1ccc(-c2nc(-c3ccc(F)cc3)c(-c3ccncc3)[nH]2)cc1 (stereo not given)	0.608 s⁻¹	1770 µM
O=S(=O)(NCCNC/C=C/c1ccc(Br)cc1)c1cccc2cnccc12	14 s⁻¹	293 µM
Cc1nc(Nc2ncc(C(=O)Nc3cc(NC(=O)c4cccc(C(F)(F)F)c4)ccc3C)s2)cc(N2CCN(CCO)CC2)n1	0.0178 s⁻¹	21.2 µM
N#C/C(=C\c1ccc(O)c(O)c1)C(=O)N1CCc2ccccc21	0.186 s⁻¹	12.7 µM
COc1cc(N2CCC(N)CC2)ccc1Nc1ncc(Cl)c(-c2c[nH]c3ccccc23)n1	0.0428 s⁻¹	74.2 µM
